# Substitutions are numbered along the chain they refer to; changes in the protein carry UniProt numbers. Some of the results follow.
# B1: GACCGUC (DNA:RNA)
# RNA: GGGAGACCGGAAUUCAGAUUGUCCGACCGUCUUAAAUCCCGUCGUAGCCACCA
# DNA 1: CAATCTGAATTCCGGTCTCCC
# DNA 2: TGGTGGCTACGACGGGATT
# B2: ACCCAGA (DNA:RNA)
# RNA: B1 RNA with G25A, A26C, G29A, U30G, C31A
# DNA 1: CAATCTGAATTCCGGTCTCCC
# DNA 2: TGGTGGCTACGACGGGATT
# B3: AGUACAC (DNA:RNA)
# RNA: B1 RNA with G25A, A26G, C27U, C28A, G29C, U30A
# DNA 1: CAATCTGAATTCCGGTCTCCC
# DNA 2: TGGTGGCTACGACGGGATT
# B4: CCAUACC (DNA:RNA)
# RNA: B1 RNA with G25C, A26C, C27A, C28U, G29A, U30C
# DNA 1: CAATCTGAATTCCGGTCTCCC
# DNA 2: TGGTGGCTACGACGGGATT
# B5: CCACGAC (DNA:RNA)
# RNA: B1 RNA with G25C, A26C, C27A, U30A
# DNA 1: CAATCTGAATTCCGGTCTCCC
# DNA 2: TGGTGGCTACGACGGGATT
# B6: GUGCCAU (DNA:RNA)
# RNA: B1 RNA with A26U, C27G, G29C, U30A, C31U
# DNA 1: CAATCTGAATTCCGGTCTCCC
# DNA 2: TGGTGGCTACGACGGGATT
# B7: CGGCUAA (DNA:RNA)
# RNA: B1 RNA with G25C, A26G, C27G, G29U, U30A, C31A
# DNA 1: CAATCTGAATTCCGGTCTCCC
# DNA 2: TGGTGGCTACGACGGGATT
# B8: CAAUUCG (DNA:RNA)
# RNA: B1 RNA with G25C, C27A, C28U, G29U, U30C, C31G
# DNA 1: CAATCTGAATTCCGGTCTCCC
# DNA 2: TGGTGGCTACGACGGGATT
# B9: AUCCCUU (DNA:RNA)
# RNA: B1 RNA with G25A, A26U, G29C, C31U
# DNA 1: CAATCTGAATTCCGGTCTCCC
# DNA 2: TGGTGGCTACGACGGGATT
# Biological target: T1, RBFOX1 RRM RbFoxmut (Fox-RRM*) (Homo sapiens, UniProt Q9NWB1 109-208, R118D;E147R;N151S;E152T)
# T1 sequence: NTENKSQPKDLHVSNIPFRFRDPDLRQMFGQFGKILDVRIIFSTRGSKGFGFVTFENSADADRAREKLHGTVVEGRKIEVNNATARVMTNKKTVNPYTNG
# Assay: EMSA; HiTS-Eq, 1 nM pool, 10 min; buffer printed only for the single-RNA assays: 10 mM Tris pH 7.5, 150 mM NaCl, 3.4 mM EDTA, 0.001% NP-40, 30 C
# Details: tags: His6 N-terminal (pET28a); label: 5' 32P
# Procedure, shortened: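 Purified wild-type or mutant RbFox RRM at increasing concentrations was equilibrated with 1 nM of 5′-radiolabelled RNA carrying 7 randomized nucleotides for 10 min in 50 µL. Unbound RNA was separated by 8% native PAGE and sequenced. Relative association constants came from read-count changes of each RNA species compared with the control reaction, normalised to the cognate motif.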
row,Binder,binding signal
1,B1,0.0863 KA relative to UGCAUGU
2,B2,0.119 KA relative to UGCAUGU
3,B3,0.0633 KA relative to UGCAUGU
4,B4,0.0836 KA relative to UGCAUGU
5,B5,0.0943 KA relative to UGCAUGU
6,B6,0.0912 KA relative to UGCAUGU
7,B7,0.0906 KA relative to UGCAUGU
8,B8,0.0664 KA relative to UGCAUGU
9,B9,0.0704 KA relative to UGCAUGU
